# Measurements published in PubChem BioAssay AID485294 (National Center for Advancing Translational Sciences (NCATS), 2010).
# The whole screen tested about 370,000 compounds, of which about 150 (0.041%) were called active. The inconclusive results got no clear call from the source; some entries with a clear call stand among them for comparison. Calls follow the shape of the dose curve; as a rule, active = well fitted inhibition curve with a large enough effect; inconclusive = small, poorly fitted or top-dose-only effect; inactive = flat fitted curve, though single readings scatter. No potency is given beside an inconclusive call; the fits are too rough.
# Biological target: Beta-lactamase (Escherichia coli (strain K12)) (UniProt P00811)
# Sequence of UniProt P00811 (P00811 whole entry, looked up): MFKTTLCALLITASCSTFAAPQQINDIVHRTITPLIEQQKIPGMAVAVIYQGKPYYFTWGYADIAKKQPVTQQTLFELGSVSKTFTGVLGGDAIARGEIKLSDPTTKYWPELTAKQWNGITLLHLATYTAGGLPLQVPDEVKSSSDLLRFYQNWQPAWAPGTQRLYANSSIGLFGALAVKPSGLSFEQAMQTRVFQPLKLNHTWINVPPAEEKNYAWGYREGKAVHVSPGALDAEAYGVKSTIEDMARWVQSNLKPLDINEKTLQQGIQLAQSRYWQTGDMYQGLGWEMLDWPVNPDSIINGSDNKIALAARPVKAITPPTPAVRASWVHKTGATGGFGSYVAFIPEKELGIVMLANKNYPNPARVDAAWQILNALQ
# Test: qHTS Inhibitors of AmpC Beta-Lactamase (assay with detergent); also: nearly all actives have a fitted effect of over 25% in size;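 as to activity change, negative = inhibition: 0% = no-compound wells and -100% = no-enzyme wells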
# Settings: AmpC hydrolysis of nitrocefin, absorbance 480 nm, 0.01% Triton; activity change, negative = inhibition: at 114 µM (top of the series)
# Procedure, shortened: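 AmpC (5.3 nM in the dispensed reagent) in 20 mM phosphate pH 7.0 with 0.01% (detergent screen) or 0.0001% Triton X-100 was preincubated with compounds for 15 min at room temperature. Nitrocefin was then added from an 800 uM solution, and hydrolysis was followed at 480 nm.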
# Potency is read from the fitted curve at half-maximal effect; tags tell the direction and shape of the fitted curve.
Compound,Potency,"activity change, negative = inhibition"
O=C(CCC1CCCCC1)NCCS(=O)(=O)N1CCN(c2ccccc2)CC1,"inconclusive [inhibitor, partial curve, poor fit]",
COCCN(C(=O)Cc1coc2cc(C)c(C)cc12)c1c(N)n(Cc2ccccc2)c(=O)[nH]c1=O,"inconclusive [inhibitor, partial curve, poor fit]",
Cc1cccc(C(=O)OC(C)C(=O)N2CCN(Cc3ccccc3)CC2)c1 (configuration not stated),"inconclusive [inhibitor, partial curve]",
CN(C)S(=O)(=O)c1ccc2c(c1)/C(=C/c1cc3c([nH]1)CCCC3)C(=O)N2,"inconclusive [inhibitor, full curve, poor fit]",
O=C(c1cccc(C(=O)N2CCc3ccccc32)n1)N1CCc2ccccc21,"inconclusive [inhibitor, single point]",
O=C(O)c1cc2nc(-c3ccccc3)cc(-c3ccccc3)n2n1,,inactive: 4.88%
Cc1ccc(C(=O)NCC(c2ccc3c(c2)OCO3)N2CCOCC2)cc1 (configuration not stated),,inactive: 3.22%
O=C(NCc1nnc(SCC(=O)N2CCCCCC2)o1)c1ccccc1F,"inconclusive [inhibitor, partial curve]",
O=C(CNC(=O)c1ccc(Cl)cc1Cl)OCc1ccccc1,"inconclusive [inhibitor, full curve, poor fit]",
C=CCOC(=O)C1=C(C)Nc2nnnn2C1c1ccc(OC)cc1OC (configuration not stated),"inconclusive [inhibitor, full curve, poor fit]",
COc1ccc(OCC(=O)N2CCOCC2)cc1,"inconclusive [inhibitor, full curve]",
Oc1ccc2c3c1O[C@H]1c4[nH]c5ccccc5c4C[C@@]4(O)[C@@H](C2)N(CC2CC2)CC[C@]314,"inconclusive [inhibitor, full curve]",
COc1ccc(S(=O)(=O)N2CCOCC2)cc1NC(=O)CSc1n[nH]c(=O)n1C1CC1,"inconclusive [inhibitor, full curve]",
COc1cccc(NC(=O)C2CCCN(S(=O)(=O)c3cccc4cccnc34)C2)c1 (configuration not stated),"inconclusive [inhibitor, full curve, poor fit]",
COc1ccc(C)cc1NC(=O)Cn1cnc2sc(C)c(S(=O)(=O)N3CCOCC3)c2c1=O,"inconclusive [inhibitor, partial curve]",
CCOC(=O)c1nn(-c2ccc(Br)cc2)cc1C(=O)c1cccc2ccccc12,,inactive: -3.9%
Cc1ccc(NC(=O)N2CCC(CN3CCCC3)CC2)c(C)c1,,inactive: -3.66%
O=C(Cn1nnc(-c2ccc(Cl)cc2)n1)N1CCN(C(=O)c2ccco2)CC1,"inconclusive [inhibitor, full curve, poor fit]",
CC(C)C[C@@H](CO)N1CCNCCC1=O,,inactive: -10.4%
Cc1ccc(C(=O)Nc2c(-c3cccs3)nc3cc(C)ccn23)cc1,,inactive: -2.75%
COc1ccccc1N1CCN(/N=C\c2ccc(C)o2)CC1,,inactive: -14.6%
Cc1cccc(C)c1NC(=O)CNC(=O)c1cn(-c2ccccc2)nc1-c1ccccc1,"inconclusive [inhibitor, partial curve, poor fit]",
Cc1cc(C)c(NC(=O)CSc2nncn3c2cc2oc(C)cc23)c(C)c1,,inactive: -3.71%

Compound,Potency,"activity change, negative = inhibition"
Cn1c(SCc2nc(-c3ccc(Br)cc3)no2)nnc1-c1ccco1,"inconclusive [inhibitor, full curve, poor fit]",
COc1cccc(CN2CC(C(=O)N(C)Cc3nc(C)cs3)CCC2=O)c1 (configuration not stated),"inconclusive [inhibitor, partial curve, poor fit]",
CCC1(CC)Cc2ccccc2-c2nc(NN)[nH]c(=O)c21,,inactive: 7.57%
O=C(COC(=O)c1ccccc1NC(=O)c1ccco1)NCc1ccc2c(c1)OCO2,"inconclusive [inhibitor, partial curve, poor fit]",
COc1ccc(CNC(=O)Nc2cn(CC(C)C)c(=O)c3ccccc23)cc1,,inactive: 14.2%
CC(C)NC(=O)c1ccc(Sc2ccccc2)c([N+](=O)[O-])c1,"inconclusive [inhibitor, full curve, poor fit]",
O=C1NC(=O)/C(=C\c2ccccc2OCc2ccc([N+](=O)[O-])cc2)N1,"inconclusive [inhibitor, single point]",
COc1ccc(CNC(=O)C(c2ccc(C)cc2)N(Cc2cccs2)C(=O)c2ccc3c(c2)OCCO3)cc1 (configuration not stated),"inconclusive [inhibitor, full curve, poor fit]",
O=C(COc1ccccc1Cl)NCCNC(=O)c1ccccn1,"inconclusive [inhibitor, full curve]",
COc1ccccc1C(=O)Nc1c(C(=O)Nc2ccccc2F)oc2ccccc12,,inactive: -12.6%
O=C(NCCC1CCCC1)c1cccs1,"inconclusive [inhibitor, single point]",
CCC(OC(=O)c1ccco1)C(=O)NCc1ccco1 (configuration not stated),"inconclusive [inhibitor, partial curve, poor fit]",
CC1=Nc2cc(C(=O)NCC3CCCO3)ccc2Sc2ccc(C)cc21 (configuration not stated),,inactive: -7.04%
C/C(=N\Nc1ccc([N+](=O)[O-])cc1)c1ccc(C#N)cc1,,inactive: 3.47%
Cc1cc([P+](=O)O)c(C)n1-c1ccc(Br)cc1,"inconclusive [inhibitor, full curve, poor fit]",
Cc1cc(C)c(OCC(=O)Nc2ccc(S(=O)(=O)N3CCCC3)cc2)c(C)c1,"inconclusive [inhibitor, full curve]",
Cc1ccc(Cn2nnc3c(=O)[nH]c(C4CCN(S(=O)(=O)c5ccc(C)cc5)CC4)nc32)cc1,"inconclusive [inhibitor, partial curve]",
CCN(CC)C1CC(=O)N(c2cccc(C)c2)C1=O (configuration not stated),"inconclusive [inhibitor, full curve, poor fit]",
CC1(C)Cc2c(sc3nc4n(c(=N)c23)CCCCC4)CO1,"inconclusive [inhibitor, partial curve, poor fit]",
Cc1ccc(C(C(=O)NC2CCCCC2)N(Cc2ccco2)C(=O)C2COc3ccccc3O2)o1 (configuration not stated),,inactive: -8.97%
O=C(Nc1nc2ccccc2s1)c1c(F)cccc1Cl,,inactive: 1.91%
CCC(Sc1nc(N)cc(N)n1)C(=O)O (configuration not stated),"inconclusive [inhibitor, single point]",
Cc1ccc(N=Cc2c(O)n(C)c(=O)n(C)c2=O)nc1,"inconclusive [inhibitor, full curve, poor fit]",

Compound,Potency,"activity change, negative = inhibition"
COc1ccc(C(=O)CSc2nc(C(C)(C)C)nc3ccccc23)cc1,,inactive: 10.9%
CCCCCSc1nc2c(c(=O)[nH]c(=O)n2C)n1C(C)C,"inconclusive [inhibitor, full curve, poor fit]",
COc1ccc(N2CCN(C(c3ccccc3F)c3sc4nc(-c5ccco5)nn4c3O)CC2)cc1 (configuration not stated),,inactive: -0.165%
CCOC(=O)CSc1n[nH]c(-c2ccco2)n1,"inconclusive [inhibitor, partial curve, poor fit]",
CCC(c1nnnn1Cc1cccs1)N1CCN(C2CCCC2)CC1 (configuration not stated),"inconclusive [inhibitor, full curve, poor fit]",
Cc1ccc(C(=O)OCC(=O)Nc2ccc(C(N)=O)cc2)s1,,inactive: -1.2%
Cc1nn(-c2ccccc2)c2c1C(c1ccc(Br)s1)C(C#N)=C(N)O2 (configuration not stated),"inconclusive [inhibitor, single point]",
COc1ccc2nc(-c3ccccc3)cc(C(=O)OCC(=O)N3CC(C)OC(C)C3)c2c1 (configuration not stated),"inconclusive [inhibitor, full curve, poor fit]",
Cc1ncc(CO)c(/C=N/N=C/c2ccccc2O)c1O,,inactive: 4.13%
Cc1ccccc1NC(=O)C1CCCN(S(=O)(=O)c2cccc3cccnc23)C1 (configuration not stated),"inconclusive [inhibitor, full curve, poor fit]",
Clc1ccc(COn2c(-c3ccc(Cl)cc3)nc3ccccc32)cc1,"inconclusive [inhibitor, full curve, poor fit]",
CC1CC(C)CN(C(=O)Cn2c(=O)n(CCCCC(=O)NCc3ccco3)c(=O)c3ccccc32)C1 (configuration not stated),"inconclusive [inhibitor, single point]",
CCOC(=O)c1c(N)sn(-c2ccccc2C)c1=S,"inconclusive [inhibitor, full curve, poor fit]",
COCCn1c(SCC(=O)Nc2cc(C(C)(C)C)nn2-c2ccccc2)nc2ccccc2c1=O,"inconclusive [inhibitor, full curve, poor fit]",
CCCCCCCN1C(N(C)C)=NC[C@@H]1Cc1ccccc1,"inconclusive [inhibitor, single point]",
CN(C)/C=N/c1sc2c(c1C#N)CCC2,,inactive: -14.9%
O=c1cccc2n1CC1CC2CN(c2ncnc3c2cnn3-c2ccc(Cl)cc2)C1 (configuration not stated),"inconclusive [inhibitor, full curve, poor fit]",
CCN(Cc1cc2cc(OC)ccc2[nH]c1=O)C(=O)c1ccncc1,"inconclusive [inhibitor, partial curve, poor fit]",
O=C(Oc1c(Cl)cc(Cl)c2ccccc12)N1CCCC1,"inconclusive [inhibitor, partial curve, poor fit]",
COc1ccccc1-c1nc(SCC(=O)NCc2ccccc2)c2c(=O)n(C)c(=O)n(C)c2n1,,inactive: 17.9%
COC(=O)c1ccccc1NC(=O)Cn1nc(C(F)(F)F)c2c1CCC2,"inconclusive [inhibitor, partial curve]",
